From US20180072782A1 (UNIVERSITY OF GEORGIA RESEARCH FOUNDATION, published 2018)

Molecular target: T1, NCKAP1 overexpressed in MDA-MB-231 cells (pCDH-CMV-MCS-EF1-PURO-NCKAP1 / HA-NCKAP1 overexpression vector) (human, UniProt Q9Y2A7 2-1128)
T1 construct: The lysate also holds endogenous NCKAP1
T1 sequence (looked up): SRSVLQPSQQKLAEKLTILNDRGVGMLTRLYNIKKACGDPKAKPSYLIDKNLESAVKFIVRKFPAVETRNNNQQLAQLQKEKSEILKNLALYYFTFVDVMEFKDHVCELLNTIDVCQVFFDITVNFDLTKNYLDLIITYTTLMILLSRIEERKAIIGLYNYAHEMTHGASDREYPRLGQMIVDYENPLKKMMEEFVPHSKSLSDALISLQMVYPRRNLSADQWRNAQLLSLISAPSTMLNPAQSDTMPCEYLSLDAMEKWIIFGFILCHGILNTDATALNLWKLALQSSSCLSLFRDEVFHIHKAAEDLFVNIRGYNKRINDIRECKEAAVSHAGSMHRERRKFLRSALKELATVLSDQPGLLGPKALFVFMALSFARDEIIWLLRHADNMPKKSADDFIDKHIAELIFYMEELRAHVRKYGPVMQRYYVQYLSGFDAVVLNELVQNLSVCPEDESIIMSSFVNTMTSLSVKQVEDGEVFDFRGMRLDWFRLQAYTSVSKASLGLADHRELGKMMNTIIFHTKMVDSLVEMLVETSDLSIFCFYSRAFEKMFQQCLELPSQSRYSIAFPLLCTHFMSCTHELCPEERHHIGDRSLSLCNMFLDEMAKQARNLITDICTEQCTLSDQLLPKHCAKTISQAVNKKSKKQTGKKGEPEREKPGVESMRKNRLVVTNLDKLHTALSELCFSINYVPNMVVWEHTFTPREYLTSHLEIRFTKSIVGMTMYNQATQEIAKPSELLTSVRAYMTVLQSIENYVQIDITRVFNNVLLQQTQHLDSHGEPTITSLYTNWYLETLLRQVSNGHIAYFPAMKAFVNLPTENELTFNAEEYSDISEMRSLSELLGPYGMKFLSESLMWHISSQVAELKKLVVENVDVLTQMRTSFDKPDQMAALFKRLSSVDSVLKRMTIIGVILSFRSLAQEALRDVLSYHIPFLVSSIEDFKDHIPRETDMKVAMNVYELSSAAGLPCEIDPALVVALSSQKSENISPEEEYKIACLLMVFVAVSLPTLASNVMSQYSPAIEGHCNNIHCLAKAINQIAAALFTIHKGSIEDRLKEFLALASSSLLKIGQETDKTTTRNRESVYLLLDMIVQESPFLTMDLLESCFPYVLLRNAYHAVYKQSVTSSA
Assay: GST pull-down from lysate of NCKAP1-overexpressing MDA-MB-231 cells, western blot

binding result: no binding
B1: GST alone (other)
chain: not shown
notes: Negative control of the pull-down
